Experimental findings from ChEMBL document CHEMBL4888484, “Replenishing the malaria drug discovery pipeline: Screening and hit evaluation of the MMV Hit Generation Library 1 (HGL1) against asexual blood stage Plasmodium falciparum ,using a nano luciferase reporter read-out” (2022) are described below.

SMILES strings stand for the structures. The campaign covered roughly 150,000 compounds. About 540 (0.36%) showed an effect of 50% or more. The list shows a part of the results.

For the assay, the system named is Plasmodium falciparum. The assay is described as follows: Primary screen in NF54 nanoGlo assay, in single point, at 2uM, 72h; a lower Z score goes with more inhibition. The assay is classed as functional, Erythrocyte. Particulars: timepoint 72 hour.
As for `C[C@@H](CC#N)N(C)C(=O)c1cccn(C)c1=O`, the % Inhibition (as a rule, the drop in the measured response relative to a control, in per cent) was 4% and the Z score is -0.48.
For `COc1ccc(-c2cnc3ncnn3c2NCCc2ccc(Cl)cc2)cc1OC` the same measures were 5% and -0.69.
Taken in the same sequence, the figures for `CC(=O)Nc1ccc(NC(=O)c2ccccc2C(=O)c2ccc3c(c2)OCCO3)cc1` were 24% and -3.81.
Taken in the same sequence, the figures for `Cc1cc2c(NC(=O)N(Cc3ccsc3)CC(C)C)cccc2nn1` were -6% and 1.12.
Consider `COc1ccc(C(CNC(=O)C2CCCc3ccccc32)N2CCCCC2)cc1` (stereo not drawn), for which the “% Inhibition” value is given as -1% and the Z score worked out at 0.28.
For `CCCc1cc(C(=O)N2CCn3c(C(N)=O)cnc3C2)no1` the same measures were -8% and 1.18.
Taken in the same sequence, the figures for `Cc1ccc(C)c(-c2coc(-c3ccc(NC(=O)NCc4ccccc4)cc3)n2)c1` were -4% and 0.52.
For `CCn1c(=O)c2ccn(CC(=O)NCc3cccc(Cl)c3)c2n(CC)c1=O` the same measures were -20% and 2.03.
`CN(CCCC(=O)Nc1ccccc1)C(=O)c1cscn1`: the “% Inhibition” value is -1% and the Z score was determined as 0.18.
With `CCC(NS(=O)(=O)N(CC)CC(C)C#N)c1ccccc1OC(F)F` (stereo not drawn), the “% Inhibition” value came out at 0% and the Z score is on record as 0.01.
For `C=CCN(Cc1cc[nH]n1)c1ccccc1` the same measures were -16% and 2.58.
Consider `C[C@H](O)CNC(=O)c1ccc(Br)cc1Cl`, for which the “% Inhibition” value is -13% and the Z score turned out to be 1.52.
Taken in the same sequence, the figures for `C[C@@H](Cn1cccn1)Nc1nc2c(cc1C(N)=O)CCC2` were -9% and 1.17.
For `Cc1ccc(C)c(NC(=O)N2CCC(n3cnc4cccnc43)CC2)c1` the same measures were 12% and -1.65.
For `O=C(C(c1ccccc1)c1ccccc1)N1CC(c2nc(-c3ccco3)no2)C1` the same measures were 3% and -0.36.
On to `N#Cc1c(-c2ccc3c(c2)OCCO3)cc(-c2ccco2)nc1N`, for which the “% Inhibition” value was -1% and the Z score was 0.25.
As for `O=C(Cn1c(=O)n(CCc2cccs2)c(=O)c2ccccc21)Nc1cc(F)cc(F)c1`, the “% Inhibition” value is -12% and the Z score came out at 1.84.
Taken in the same sequence, the figures for `COc1cccc(NC(=O)c2cnn3c2NC(C(=O)O)=C[C@H]3c2ccccc2OC)c1` were 2% and -0.29.
Taken in the same sequence, the figures for `COc1ccc(-c2cnc3ncnn3c2NCc2cc(C(F)(F)F)cc(C(F)(F)F)c2)cc1OC` were 6% and -0.61.
Taken in the same sequence, the figures for `CCc1c(C)nn(CC(=O)N2CCNC[C@H]2C(=O)N2CCOCC2)c1C` were -12% and 2.33.
As for `C=CCN=C(NCc1ccccc1CO)NC(C)C`, the “% Inhibition” value is listed as -13% and the Z score is 1.5.
Taken in the same sequence, the figures for `NC(=O)c1ccc(C(F)(F)F)nc1N1CCC[C@H](Cn2ccnc2)C1` were -15% and 1.44.
On to `CNc1nc(C)ccc1C(=O)Nc1cc(C(F)(F)F)n[nH]1`, for which the “% Inhibition” value is -9% and the Z score is 0.99.
For the molecule `COc1cc(OC)c2ncnc(N3CC4(CCC4)C3C3CCCO3)c2c1` (stereo not drawn), the “% Inhibition” value was 2% and the Z score is -0.38.
Take `N#CCC(=O)NCc1ccc(Cl)cc1Cl`: the “% Inhibition” value is -14% and the Z score amounted to 1.58.
Taken in the same sequence, the figures for `Cc1ccccc1OCC(=O)N[C@@H]1C[C@H]2C(=O)NCC(=O)N2C1` were 13% and -1.75.
Taken in the same sequence, the figures for `Cc1ncsc1CCC(=O)Nc1ccc2c(c1)C[C@H](C)O2` were -3% and 0.62.
In the case of `O=C(Nc1cc(Oc2ccc(F)cc2)cc(Oc2ccc(F)cc2)c1)c1cc(-c2ccccc2)nc2ccccc12`, the “% Inhibition” value is -14% and the Z score worked out at 2.58.
As to `CN(Cc1ccsc1)C(=O)CCNc1ccccc1`, the “% Inhibition” value was 4% and the Z score is given as -0.67.
For `CS(=O)(=O)N1CCc2nc(NC(=O)c3cccs3)sc2C1` the same measures were -11% and 1.58.
As to `COc1ccc(COC2CN(C(=O)COc3ccc(F)cc3)C2)cc1F`, the “% Inhibition” value is recorded as -14% and the Z score was found to be 2.17.
In the case of `COc1ccc(C(C)NCC(C)OC)cc1` (stereo not drawn), the “% Inhibition” value was -3% and the Z score was 0.41.
For `Cc1ccc(-n2ncc3c(O)c(-c4nc(-c5cccc(Cl)c5)no4)c(=O)[nH]c32)cc1` the same measures were 0% and -0.01.
On to `Cc1nc(C(=O)OCCOC2CCCCC2C)cs1` (stereo not drawn), for which the “% Inhibition” value is reported as -7% and the Z score was determined as 0.65.
For `COc1ccc(C(=O)Nc2ccsc2-c2nc(-c3ccc(C)cc3)no2)cc1` the same measures were 2% and -0.24.
As to `COc1cccc(-c2ncc(CNC(=O)COC[C@H]3CCCO3)s2)c1`, the “% Inhibition” value is recorded as -12% and the Z score turned out to be 1.26.
For `CCc1nc2c(c(N[C@@H](CC)c3nc(C)c(C)s3)n1)CCNCC2` the same measures were -2% and 0.27.
Taken in the same sequence, the figures for `Cc1cnc(N)c(S(=O)(=O)N2CCC[C@@H]2COc2ccc(F)cc2)c1` were -7% and 1.28.
Taken in the same sequence, the figures for `Cc1occc1CN(C)C(=O)c1ccc(S(N)(=O)=O)o1` were 16% and -1.81.
As to `Cc1ccc(-c2c(CN3CCN(c4ccc(F)cc4)CC3)csc2C)cc1`, the “% Inhibition” value is listed as 6% and the Z score is -1.09.
For `FC(F)(F)c1cnc(N2CCn3ccnc3C2)s1` the same measures were -1% and 0.11.
Taken in the same sequence, the figures for `CN(Cc1cn(C)nn1)CC1CCOCC1` were -11% and 2.06.
With `CN(CC(O)c1ccccc1)C(=O)CC1(c2ccccc2)CC(=O)N(CC2CCCCC2)C1=O` (stereo not drawn), the “% Inhibition” value is -13% and the Z score is on record as 2.53.
For `CCN(Cc1noc(C(C)C)n1)C1CC1`, the “% Inhibition” value is reported as -18% and the Z score is listed as 2.02.
For `COc1nn(C)cc1C(=O)Nc1cc(C)ns1` the same measures were 4% and -0.66.
Taken in the same sequence, the figures for `CCN(CC)C(=O)c1sc2c(c1C)c(=O)n(CCc1ccccc1)c(=O)n2Cc1cccc(C)c1` were -13% and 1.55.
With `O=C(Cc1ccc(NC(=O)C23CCCN2CCC3)cc1)N1CCOCC1`, the “% Inhibition” value is -4% and the Z score worked out at 0.36.
Taken in the same sequence, the figures for `CNC(=O)N(C)CCc1noc(-c2ccc(C)cc2)n1` were -4% and 0.78.
For `CCS(=O)(=O)NCCN(C1CCC(C)CC1)C1CCC(O)CC1` (stereo not drawn) the same measures were -2% and 0.31.
As for `Clc1cccnc1OC1CCC(NCc2cnn3ccccc23)CC1` (stereo not drawn), the “% Inhibition” value is given as -11% and the Z score is 1.58.
Regarding `COc1ccc(C2C(C(=O)N3CCN(Cc4ccccc4)CC3)c3ccccc3C(=O)N2c2ccc(OC)cc2)cc1` (stereo not drawn), the “% Inhibition” value is listed as -3% and the Z score was found to be 0.29.
For `O=C(NCCN1CCCC1=O)c1ccc(-c2cccc(Cl)c2Cl)cc1` the same measures were 2% and -0.44.
For `CCOC(=O)Cc1nnc(CNc2ccc(F)cc2)[nH]1` the same measures were 27% and -3.09.
`O=C(CN(c1ccccc1F)C1CCCC1)c1c[nH]c(C(=O)N2CCCC2)c1`: the “% Inhibition” value is -7% and the Z score is listed as 1.41.
Turning to `COC[C@@H](O)CN(C)Cc1ccc(Br)cc1Cl`, the “% Inhibition” value is recorded as -5% and the Z score was determined as 0.77.
Turning to `CC[C@@H](CNc1nccnc1N(C)C)N1CCOCC1`, the “% Inhibition” value was -3% and the Z score is given as 0.67.
For `Cn1cc(C2CCCCN2C(=O)C2COc3ccccc3O2)cn1` (stereo not drawn), the “% Inhibition” value is on record as 10% and the Z score is on record as -1.64.
For `Cc1nn(-c2ncnc3[nH]cnc23)c2c1[C@@]1(CC(=O)N2)C(=O)N(CCC(C)C)c2ccccc21` the same measures were -9% and 1.06.
In the case of `COc1ccc(CN2CCC[C@@]3(CCN(C(=O)C(C)C)C3)C2)c(OC)c1`, the “% Inhibition” value is -12% and the Z score is 1.83.
For the molecule `COCCc1noc([C@H](C)NC(=O)Cc2ccc(O)c(Cl)c2)n1`, the “% Inhibition” value is -28% and the Z score is 2.8.
Regarding `Cc1cccc(CN2CCN(Cc3cccc(C)n3)[C@@H](CCO)C2)n1`, the “% Inhibition” value is -2% and the Z score is 0.35.
As to `CNc1nc(C)c(C(=O)NCCc2nc(C)c3c(n2)CCCC3)s1`, the “% Inhibition” value is reported as -9% and the Z score is recorded as 1.63.
For `CC1Cc2ccccc2N1CCNC(=O)NCC1COCCO1` (stereo not drawn) the same measures were 17% and -1.99.
In the case of `CCN1CC[C@H](CNC(=O)c2cc(C)c3nc(N)sc3c2)C1`, the “% Inhibition” value is given as -5% and the Z score was 0.62.
Take `CC1CCN(CC2CCCN(C(=O)C(C)Oc3cccnc3)C2)CC1` (stereo not drawn): the “% Inhibition” value is -8% and the Z score is 1.09.
Regarding `CCS(=O)(=O)N1CCCC(C(=O)N2CCC[C@@H](O)C2)C1` (stereo partly drawn), the “% Inhibition” value is -12% and the Z score was found to be 1.47.
For `CCCc1ccc(CN2CCC3(CCC(=O)N(CCc4ccncc4)C3)CC2)o1` the same measures were 6% and -0.83.
Regarding `O=S(=O)(CC1CCOC2(CCOCC2)C1)NCC1CC=CCC1` (stereo not drawn), the “% Inhibition” value was 4% and the Z score is on record as -0.73.
For `COc1c(C)cc(NC(=O)N(C)C[C@H]2CC(=O)N(C)C2)cc1C` the same measures were 1% and -0.27.
For `COc1cc2c(cc1OC)CN(C(=O)CN(C)[C@@H](C)c1ccccc1)CC2` the same measures were -6% and 0.92.
For `COc1cc(NC(=O)N2CCC[C@H]2C2CCC2)c(OC)c(C)c1OC` the same measures were -3% and 0.51.
For the molecule `COc1cc(OC)cc(N2CC(C(=O)N3CC(C)[S+]([O-])C(C)C3)CC2=O)c1` (stereo not drawn), the “% Inhibition” value was -4% and the Z score was found to be 0.51.
Regarding `Cc1nc2c(c(=O)n1C)CN(C(=O)Cc1ccncc1)C2`, the “% Inhibition” value is -12% and the Z score is on record as 1.97.
For `O=S1(=O)C[C@@H]2[C@H](C1)N(c1ncccn1)CCN2Cc1ccc2occc2c1` the same measures were 2% and -0.3.
For `CC(=O)N[C@@H]1C[C@H](Cc2ccccc2)O[C@H](c2nccs2)C1` the same measures were -6% and 0.66.
For the molecule `O=C(c1cc(O)cc(O)c1)N1CCN(CC(F)(F)C(F)F)CC1`, the “% Inhibition” value is on record as -34% and the Z score is 5.4.
For `O=S(=O)(N[C@H]1CCCC[C@@H]1O)c1ccc(F)c(Br)c1` the same measures were -11% and 1.34.
As to `CC(=O)c1c[nH]c(C(=O)N2CCC[C@H]2c2ccc3c(c2)OCCCO3)c1`, the “% Inhibition” value was -10% and the Z score is 1.94.
With `O=C(Nc1cccc(C2OC(=O)N(Cc3cccc(Cl)c3)C2C(=O)NCc2ccccn2)c1)c1ccc(F)cc1` (stereo not drawn), the “% Inhibition” value is given as -6% and the Z score is given as 0.77.
Taken in the same sequence, the figures for `CCCS(=O)(=O)c1c(S(=O)(=O)CCC)c2cnccn2c1C(=O)c1ccc(Cl)cc1` were -7% and 0.61.
For `O=S(=O)(c1ccc(Cl)s1)N1CC[C@H](c2ncon2)C1` the same measures were -2% and 0.32.
For `COC(=O)c1nc(CCNC(=O)OCC(F)(F)F)sc1C` the same measures were 5% and -0.74.
On to `CC(C)[C@H](NC(=O)CN(C)CC(=O)NCC(F)(F)F)c1cccs1`, for which the “% Inhibition” value is -6% and the Z score is on record as 0.75.
For the molecule `CC(=O)N1CC[C@H](CN(C)Cc2ccc(Cl)c(F)c2)C1`, the “% Inhibition” value is given as -6% and the Z score is recorded as 0.73.
